Experimental data: the supplement of paper PMC9446081
About 220 (0.56%) of roughly 39,000 compounds showed activity. The list shows a part of the results.
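Note: static incubation at 37 °C against the wild-type strain, values averaged over two biological replicates.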

Each compound was assayed on Escherichia coli K-12 BW25113 (assay: relative growth (OD600 normalised to plate interquartile mean) (fraction); higher = less growth inhibition, active = 0.2 or less). Conditions: 50 µM; LB; incubation time: overnight (16-24 h).
For `C[C@@H]1CCCCO[C@H](CN(C)C(=O)NC2CCCCC2)[C@H](C)CN([C@H](C)CO)C(=O)c2cc(NC(=O)Nc3ccc(F)cc3)ccc2O1`, the relative growth was inactive: 1.03. For `C[C@H](CO)N1C[C@H](C)[C@@H](CN(C)CC2CCCCC2)Oc2c(NS(=O)(=O)c3cn(C)cn3)cccc2C1=O`, the relative growth was inactive: 1.01. `CC(C)NC(=O)N(C)C[C@@H]1Oc2cc(-c3ccccc3F)ccc2S(=O)(=O)N([C@@H](C)CO)C[C@H]1C` was tested, and the relative growth was inactive: 0.917. In the case of `CC(C)NC(=O)Nc1ccc2c(c1)CC(=O)N([C@@H](C)CO)C[C@H](C)[C@@H](CN(C)C(=O)NC1CCCCC1)O2`, the relative growth is reported as inactive: 1. For `Cc1noc(C)c1NC(=O)N(C)C[C@H]1Oc2c(NC(=O)c3ccc(-c4nccs4)cc3)cccc2C(=O)N([C@H](C)CO)C[C@@H]1C`, the relative growth was inactive: 0.997. With `C[N+](C)(CCOc1ccccc1)Cc1ccccc1.O=C(O)c1cc2ccccc2c(Br)c1O` the relative growth was inactive: 0.944. In the case of `CC(C)CC#Cc1ccc2c(c1)O[C@H](CN(C)S(=O)(=O)c1ccc(F)cc1)[C@@H](C)CN([C@@H](C)CO)S2(=O)=O`, the relative growth is reported as inactive: 1.02. For `CN1CCN(C)C2(CCN(C(=O)c3ccn[nH]3)CC2)C1=O`, the relative growth was inactive: 0.992. With `C[C@@H]1CN([C@@H](C)CO)C(=O)c2cc(NS(C)(=O)=O)ccc2O[C@@H](C)CCCCO[C@H]1CN(C)S(=O)(=O)c1cccs1` the relative growth was inactive: 1.01. `Cc1noc(C)c1S(=O)(=O)N(C)C[C@@H]1OCCCC[C@H](C)Oc2ccc(NC(=O)Nc3ccc(C(F)(F)F)cc3)cc2C(=O)N([C@H](C)CO)C[C@H]1C` was tested, and the relative growth was inactive: 1.02. `CCN(CC)CCOc1ccc(Nc2ncc3cc(-c4c(Cl)cccc4Cl)c(=O)n(C)c3n2)cc1` was tested, and the relative growth was inactive: 1.01. With `COCC(=O)Nc1ccc2c(c1)C(=O)N(C)C[C@@H](OC)[C@H](C)CN(Cc1cccc(F)c1)[C@@H](C)CO2` the relative growth was inactive: 0.972. `C[C@@H]1CN([C@H](C)CO)C(=O)c2cc(NC(=O)Cc3ccccc3)ccc2O[C@H]1CN(C)C(=O)Nc1cccc2ccccc12` was tested, and the relative growth was inactive: 0.995. `COc1ccc(Cc2c(O)[nH]c(N)nc2=O)cc1` was tested, and the relative growth was inactive: 0.996. For `C[C@H](CO)N1C[C@H](C)[C@@H](CN(C)C(=O)Nc2ccccc2)Oc2ccc(NC(=O)Nc3cccc4ccccc34)cc2C1=O`, the relative growth was inactive: 1.01. For `C[C@@H]1CN([C@H](C)CO)C(=O)c2c(c3ccccc3n2C)-c2ccccc2CO[C@@H]1CN(C)Cc1cccc(C(=O)O)c1`, the relative growth was inactive: 0.987. `COc1cccc(S(=O)(=O)N(C)C[C@H]2Oc3cc(C4=CCCC4)ccc3S(=O)(=O)N([C@H](C)CO)C[C@@H]2C)c1` was tested, and the relative growth was inactive: 0.98. In the case of `C[C@@H]1CN([C@H](C)CO)C(=O)Cc2cc(NC(=O)CCCCCC(=O)Nc3ccccc3N)ccc2O[C@@H]1CN(C)C(=O)Nc1ccc(C(F)(F)F)cc1`, the relative growth is reported as inactive: 1.02. For `Cc1cccc(Nc2ccncc2S(=O)(=O)NC(=O)NC(C)C)c1`, the relative growth was inactive: 1.14. `CCN1[C@@H]2c3ccc(-c4ccncc4)c(=O)n3C[C@H]1[C@H](CO)[C@H]2C(=O)NCCc1cn(C)cn1` was tested, and the relative growth was inactive: 0.99. `Nc1ncnc2c1c(-c1ccc(Cl)cc1)nn2-c1cccc(-c2cnnn2Cc2cccc(-c3ccccc3)c2)c1` was tested, and the relative growth was inactive: 1.05. In the case of `C[C@H](CO)N1C[C@H](C)[C@@H](CN(C)Cc2ccc(C(=O)O)cc2)Oc2ccc(NC(=O)c3ccncc3)cc2C1=O`, the relative growth is reported as inactive: 0.992. For `C[C@@H]1CN([C@@H](C)CO)C(=O)c2ccccc2-c2ccccc2CO[C@@H]1CN(C)Cc1cccc2c1OCCCO2`, the relative growth was inactive: 0.989. With `O=C1NC(=O)[C@@]2(CCOc3ccc(F)cc32)N1` the relative growth was inactive: 0.972. For `C[C@@H]1CN([C@@H](C)CO)C(=O)c2cccc(NC(=O)C3CCOCC3)c2O[C@H]1CN(C)C(=O)Nc1ccccc1`, the relative growth was inactive: 0.982. With `COc1ccc(NC(=O)N(C)C[C@H]2Oc3c(NS(=O)(=O)c4cn(C)cn4)cccc3C(=O)N([C@@H](C)CO)C[C@@H]2C)cc1` the relative growth was inactive: 0.995. With `C[C@H]1CCCCO[C@H](CN(C)S(=O)(=O)c2cn(C)cn2)[C@@H](C)CN([C@@H](C)CO)C(=O)c2cc(NC(=O)CCCN(C)C)ccc2O1` the relative growth was inactive: 1.02. For `Nc1nnnn1/N=C/c1ccco1`, the relative growth was inactive: 0.998. With `CO[C@H]1CN(C)C(=O)c2ccc(NS(=O)(=O)c3cn(C)cn3)cc2OC[C@H](C)N(CCC(F)(F)F)C[C@@H]1C` the relative growth was inactive: 1. `C[C@@H]1CCCCO[C@H](CN(C)C(=O)NC2CCCCC2)[C@H](C)CN([C@H](C)CO)C(=O)c2cc(NS(=O)(=O)c3ccccc3)ccc2O1` was tested, and the relative growth was inactive: 0.993. In the case of `CCS(=O)(=O)Nc1ccc2c(c1)C(=O)N(C)[C@@H]1CC[C@H](CC(=O)NCc3ccccc3F)O[C@H]1CO2`, the relative growth is reported as inactive: 1.01. For `C[C@H](NC(=O)C[C@H]1CC[C@H](NC(=O)CN2CCOCC2)[C@H](CO)O1)c1ccccc1`, the relative growth was inactive: 0.979. In the case of `CNC[C@H]1Oc2ccc(NC(=O)Cn3cnnn3)cc2CC(=O)N([C@H](C)CO)C[C@@H]1C`, the relative growth is reported as inactive: 1. With `O=C(O)CCCCC1SCC2NC(=O)NC21` (stereo not drawn) the relative growth was inactive: 1. For `CO[C@@H]1CN(C)C(=O)c2ccc(NC(=O)Nc3ccccc3Cl)cc2OC[C@@H](C)N(Cc2ccccc2C(=O)O)C[C@H]1C`, the relative growth was inactive: 0.972. `CCn1c(=O)cc(N2CCC(C)CC2)[nH]c1=O` was tested, and the relative growth was inactive: 1.02. For `CC(=O)Oc1ccccc1C(=O)Nc1ccccc1`, the relative growth was inactive: 0.937. `Cc1noc(C)c1NC(=O)N(C)C[C@H]1Oc2c(NC(=O)c3ccncc3)cccc2C(=O)N([C@H](C)CO)C[C@@H]1C` was tested, and the relative growth was inactive: 0.989. In the case of `CO[C@@H]1CN(C)C(=O)c2cc(NC(=O)c3ccccc3)ccc2OC[C@@H](C)N(C(=O)CN(C)C)C[C@@H]1C`, the relative growth is reported as inactive: 0.926. In the case of `COc1cc(NS(=O)(=O)c2ccc(N)cc2)nc(OC)n1`, the relative growth is reported as inactive: 1.15. With `C[C@@H]1CN([C@H](C)CO)C(=O)c2cc(C#Cc3ccccc3)cnc2O[C@@H]1CN(C)S(=O)(=O)c1ccccc1F` the relative growth was inactive: 1.03. In the case of `C[C@@H]1CN([C@H](C)CO)C(=O)c2ccccc2-c2ccccc2CO[C@@H]1CN(C)Cc1cccc2c1OCCCO2`, the relative growth is reported as inactive: 1.01. `C[C@H]1CCCCO[C@@H](CN(C)C(=O)Nc2cccc3ccccc23)[C@@H](C)CN([C@@H](C)CO)C(=O)c2cc(NS(=O)(=O)c3ccc(F)cc3)ccc2O1` was tested, and the relative growth was inactive: 1. For `O=C(C[C@H]1CC[C@H]2[C@@H](COC[C@@H](O)CN2Cc2cc(F)ccc2F)O1)N[C@@H]1CCN(Cc2ccccc2)C1`, the relative growth was inactive: 1.01. `C[C@@H]1CCCCO[C@@H](CN(C)C(=O)C2CCCCC2)[C@H](C)CN([C@@H](C)CO)C(=O)c2cc(NC(=O)Nc3ccccc3)ccc2O1` was tested, and the relative growth was inactive: 1.03. In the case of `CCCC#Cc1cnc2c(c1)C(=O)N([C@@H](C)CO)C[C@@H](C)[C@H](CN(C)S(=O)(=O)c1cccc(OC)c1)O2`, the relative growth is reported as inactive: 1.08. `COCC#Cc1ccc([C@H]2[C@H](CO)N3C(=O)CN(C(=O)c4ccncc4)C[C@@H]23)cc1` was tested, and the relative growth was inactive: 0.987. For `C[C@H](CO)N1C[C@H](C)[C@@H](CN(C)S(C)(=O)=O)Oc2c(cccc2N(C)C)C1=O`, the relative growth was inactive: 1.01. In the case of `CC(C)NC(=O)N(C)C[C@@H]1Oc2ccc(NC(=O)CCCN(C)C)cc2C(=O)N([C@H](C)CO)C[C@H]1C`, the relative growth is reported as inactive: 1.02. In the case of `COc1ccc(cc1)NC(=O)N1C[C@]2(C1)CN([C@@H](CO)c1[nH]c3cc(ccc3c12)OC)C(=O)CN1CCOCC1`, the relative growth is reported as inactive: 0.981. `CCN(CCO)C(=O)C1CN(C(C)=O)C1` was tested, and the relative growth was inactive: 1.01. In the case of `C[C@@H]1CN([C@@H](C)CO)C(=O)c2cc(NC(=O)CCCN(C)C)ccc2O[C@@H]1CN(C)S(=O)(=O)c1cn(C)cn1`, the relative growth is reported as inactive: 0.978. With `COc1ccc(CNC(=O)N(C)C[C@H]2OCc3ccccc3-c3c(n(C)c4ccccc34)C(=O)N([C@H](C)CO)C[C@H]2C)cc1` the relative growth was inactive: 1.01. For `C[C@@H](Sc1nc(N)cc(N)n1)C(=O)O`, the relative growth was inactive: 0.986. `O=C(NCCN1CCCC1)[C@@H]1[C@@H](CO)[C@@H]2Cn3c(cccc3=O)[C@@H]2N1C(=O)c1ccccc1` was tested, and the relative growth was inactive: 1.02. In the case of `C[C@H](CO)N1C[C@H](C)[C@H](CN(C)C(=O)Cc2ccccc2)OCCCC[C@H](C)Oc2ccc(NC(=O)NC3CCCCC3)cc2C1=O`, the relative growth is reported as inactive: 1.01. For `C=C1C(CO)C(O)CC1n1cnc2c(=O)[nH]c(N)nc21.O` (stereo not drawn), the relative growth was inactive: 0.816. In the case of `C[C@H](CO)N1C[C@H](C)[C@@H](CN(C)Cc2ccncc2)Oc2c(NC(=O)Nc3ccc(C(F)(F)F)cc3)cccc2C1=O`, the relative growth is reported as inactive: 0.981. In the case of `COc1ccc(CN(C)C[C@@H]2Oc3ccc(NS(C)(=O)=O)cc3C(=O)N([C@@H](C)CO)C[C@H]2C)cc1`, the relative growth is reported as inactive: 1.01. For `C[C@H](CO)N1C[C@H](C)[C@H](CN(C)Cc2ccc(C(F)(F)F)cc2)Oc2ccc(NS(=O)(=O)c3ccc(Cl)cc3)cc2CC1=O`, the relative growth was inactive: 1.03. In the case of `COc1ccc(S(=O)(=O)N(C)C[C@@H]2Oc3c(NC(=O)Nc4c(C)noc4C)cccc3C(=O)N([C@H](C)CO)C[C@H]2C)cc1`, the relative growth is reported as inactive: 1.03. In the case of `COc1ccc(S(=O)(=O)N(C)C[C@@H]2OCCCC[C@@H](C)Oc3ccc(NC(=O)CCC(F)(F)F)cc3C(=O)N([C@H](C)CO)C[C@H]2C)cc1`, the relative growth is reported as inactive: 1.02. In the case of `CC(C)NC(=O)N(C)C[C@@H]1Oc2cc(C#Cc3cccc(F)c3)ccc2S(=O)(=O)N([C@@H](C)CO)C[C@H]1C`, the relative growth is reported as inactive: 1.02.
